The source of these data is PMC9911399, “Two distinct binding modes provide the RNA-binding protein RbFox with extraordinary sequence specificity”.

Positions count from the first letter of the chain named. This is one part of the list.

T1: RBFOX1 RRM (Homo sapiens, UniProt Q9NWB1 109-208)
T1 sequence: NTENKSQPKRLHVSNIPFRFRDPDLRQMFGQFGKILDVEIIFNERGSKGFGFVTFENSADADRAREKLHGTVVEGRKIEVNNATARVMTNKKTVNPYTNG

B1: CUUCUUG (DNA:RNA)
RNA: GGGAGACCGGAAUUCAGAUUGUCCCUUCUUGUUAAAUCCCGUCGUAGCCACCA
DNA 1: CAATCTGAATTCCGGTCTCCC
DNA 2: TGGTGGCTACGACGGGATT
B2: ACGGAUA (DNA:RNA)
RNA: B1 RNA with C25A, U26C, U27G, C28G, U29A, G31A
DNA 1: CAATCTGAATTCCGGTCTCCC
DNA 2: TGGTGGCTACGACGGGATT
B3: UGUCAAC (DNA:RNA)
RNA: B1 RNA with C25U, U26G, U29A, U30A, G31C
DNA 1: CAATCTGAATTCCGGTCTCCC
DNA 2: TGGTGGCTACGACGGGATT
B4: CUAUAGU (DNA:RNA)
RNA: B1 RNA with U27A, C28U, U29A, U30G, G31U
DNA 1: CAATCTGAATTCCGGTCTCCC
DNA 2: TGGTGGCTACGACGGGATT
B5: UAUCCGU (DNA:RNA)
RNA: B1 RNA with C25U, U26A, U29C, U30G, G31U
DNA 1: CAATCTGAATTCCGGTCTCCC
DNA 2: TGGTGGCTACGACGGGATT
B6: UGCUUCC (DNA:RNA)
RNA: B1 RNA with C25U, U26G, U27C, C28U, U30C, G31C
DNA 1: CAATCTGAATTCCGGTCTCCC
DNA 2: TGGTGGCTACGACGGGATT
B7: GAGUUCA (DNA:RNA)
RNA: B1 RNA with C25G, U26A, U27G, C28U, U30C, G31A
DNA 1: CAATCTGAATTCCGGTCTCCC
DNA 2: TGGTGGCTACGACGGGATT
B8: GAUAAAU (DNA:RNA)
RNA: B1 RNA with C25G, U26A, C28A, U29A, U30A, G31U
DNA 1: CAATCTGAATTCCGGTCTCCC
DNA 2: TGGTGGCTACGACGGGATT
B9: UAAUUCA (DNA:RNA)
RNA: B1 RNA with C25U, U26A, U27A, C28U, U30C, G31A
DNA 1: CAATCTGAATTCCGGTCTCCC
DNA 2: TGGTGGCTACGACGGGATT
B10: UUGUACU (DNA:RNA)
RNA: B1 RNA with C25U, U27G, C28U, U29A, U30C, G31U
DNA 1: CAATCTGAATTCCGGTCTCCC
DNA 2: TGGTGGCTACGACGGGATT
B11: GUUCCGA (DNA:RNA)
RNA: B1 RNA with C25G, U29C, U30G, G31A
DNA 1: CAATCTGAATTCCGGTCTCCC
DNA 2: TGGTGGCTACGACGGGATT
B12: UAUCCGC (DNA:RNA)
RNA: B1 RNA with C25U, U26A, U29C, U30G, G31C
DNA 1: CAATCTGAATTCCGGTCTCCC
DNA 2: TGGTGGCTACGACGGGATT
B13: UUGACGA (DNA:RNA)
RNA: B1 RNA with C25U, U27G, C28A, U29C, U30G, G31A
DNA 1: CAATCTGAATTCCGGTCTCCC
DNA 2: TGGTGGCTACGACGGGATT
B14: CGCAGUU (DNA:RNA)
RNA: B1 RNA with U26G, U27C, C28A, U29G, G31U
DNA 1: CAATCTGAATTCCGGTCTCCC
DNA 2: TGGTGGCTACGACGGGATT
B15: GGGCCUU (DNA:RNA)
RNA: B1 RNA with C25G, U26G, U27G, U29C, G31U
DNA 1: CAATCTGAATTCCGGTCTCCC
DNA 2: TGGTGGCTACGACGGGATT
B16: UCAUUAA (DNA:RNA)
RNA: B1 RNA with C25U, U26C, U27A, C28U, U30A, G31A
DNA 1: CAATCTGAATTCCGGTCTCCC
DNA 2: TGGTGGCTACGACGGGATT
B17: AUAGGAC (DNA:RNA)
RNA: B1 RNA with C25A, U27A, C28G, U29G, U30A, G31C
DNA 1: CAATCTGAATTCCGGTCTCCC
DNA 2: TGGTGGCTACGACGGGATT
B18: CGAAUAU (DNA:RNA)
RNA: B1 RNA with U26G, U27A, C28A, U30A, G31U
DNA 1: CAATCTGAATTCCGGTCTCCC
DNA 2: TGGTGGCTACGACGGGATT
B19: AUAUUAU (DNA:RNA)
RNA: B1 RNA with C25A, U27A, C28U, U30A, G31U
DNA 1: CAATCTGAATTCCGGTCTCCC
DNA 2: TGGTGGCTACGACGGGATT
B20: UAGCAGG (DNA:RNA)
RNA: B1 RNA with C25U, U26A, U27G, U29A, U30G
DNA 1: CAATCTGAATTCCGGTCTCCC
DNA 2: TGGTGGCTACGACGGGATT

In this experiment the target is T1, RBFOX1 RRM. Nature of the experiment: EMSA; HiTS-Eq, 1 nM pool, 10 min; buffer printed only for the single-RNA assays: 10 mM Tris pH 7.5, 150 mM NaCl, 3.4 mM EDTA, 0.001% NP-40, 30 C. The note with it: tags: His6 N-terminal (pET28a); label: 5' 32P. A digest of the protocol:
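Purified wild-type or mutant RbFox RRM at increasing concentrations was equilibrated with 1 nM of 5′-radiolabelled RNA carrying 7 randomized nucleotides for 10 min in 50 µL. Unbound RNA was separated by 8% native PAGE and sequenced. Relative association constants came from read-count changes of each RNA species compared with the control reaction, normalised to the cognate motif.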
In the case of B1, the binding signal was 0.0157 KA relative to UGCAUGU. In the case of B2, the binding signal was 0.0095 KA relative to UGCAUGU. Consider B3, for which the binding signal is 0.00884 KA relative to UGCAUGU. B4: the binding signal was 0.00705 KA relative to UGCAUGU. In the case of B5 it was 0.00816 KA relative to UGCAUGU. For the molecule B6, the binding signal is 0.0171 KA relative to UGCAUGU. As to B7, the binding signal is 0.0118 KA relative to UGCAUGU. In the case of B8 it was 0.00632 KA relative to UGCAUGU. For B9, the binding signal was 0.00413 KA relative to UGCAUGU. Consider B10, for which the binding signal was 0.00971 KA relative to UGCAUGU. Regarding B11, the binding signal was 0.0204 KA relative to UGCAUGU. In the case of B12 it was 0.00588 KA relative to UGCAUGU; in that of B13, 0.0118 KA relative to UGCAUGU. In the case of B14, the binding signal was 0.00892 KA relative to UGCAUGU. As to B15, the binding signal is 0.0213 KA relative to UGCAUGU. B16: the binding signal is 0.000346 KA relative to UGCAUGU. For B17, the binding signal is 0.00455 KA relative to UGCAUGU. On to B18, for which the binding signal was 0.00361 KA relative to UGCAUGU. As for B19, the binding signal was 0.00253 KA relative to UGCAUGU. As to B20, the binding signal was 0.012 KA relative to UGCAUGU.
